Assay results published in a collection of fitness landscapes (doi:10.1016/j.celrep.2020.107928).
In all, about 81,000 sequences were measured (“one-hybrid fitness for binding parS DNA”: median about -0.17, highest 2% from about 0.51 on). The list shows a part of the results.

B1: Caulobacter ParB omega fusion; a variant is named by its letters at X, in order, B8GW30 (parent)
chain: MESVVVGEPGMSEGRRGLGRGLSALLGEVDAAPAQAPGEQLGGSREAPIEILQRNPDQPRRTFREEDLEDLSNSIREKGVLQPILVRPSPDTAGEYQIVAGERAWRAAQRAGLKTVPIMVRELDDLAVLEIGIIENVQRADLNVLEEALSYKVLMEKFERTQENIAQTIGKSXSHVANXMRLLXLPDEVQSYLVSGELTAXHARAIAAAADPVALAKQIIEGGLSVRETEALARKAPNLSAGKSKGGRPPRVKDTDTQALESDLSSVLGLDVSIDHRGSTGTLTITYATLEQLDDLCNRLTRGI

Variants of: B1
Assay: one-hybrid fitness for binding parS DNA (scaled: cognate 1, non-cognate 0); higher = stronger binding
Conditions: with parS DNA site
Summary of the method: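 Pre- and post-selection plasmids were Illumina-sequenced, three replicate libraries were pooled, and any variant with under 10 reads was removed. The libraries were Caulobacter ParB with four specificity codons randomised, selected in E. coli USO through a HIS3 reporter whose site is 19 bp from the promoter. Cells grew 48 hours at 37°C on M9 without histidine, with 0.1 mM IPTG and 5 mM 3-AT. Fitness is the log change in variant-to-wild-type read ratio, rescaled against cognate and non-cognate.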

| Variant | one-hybrid fitness for binding parS DNA |
| --- | --- |
| SPCC | ≤ 0.2 |
| TKMN | ≤ 0.2 |
| MPNL | ≤ 0.2 |
| PRND | ≤ 0.2 |
| PLLI | ≤ 0.2 |
| MIVS | ≤ 0.2 |
| ATDT | ≤ 0.2 |
| YIVY | ≤ 0.2 |
| PCAL | ≤ 0.2 |
| TRQP | ≤ 0.2 |
| QLAG | ≤ 0.2 |
| HRCR | ≤ 0.2 |
| QRSK | ≤ 0.2 |
| RFPW | ≤ 0.2 |
| RICV | ≤ 0.2 |
| PQVP | ≤ 0.2 |
| CREG | ≤ 0.2 |
| RDTA | ≤ 0.2 |
| TMPL | ≤ 0.2 |
| IYKV | ≤ 0.2 |
| KTRA | ≤ 0.2 |
| HQPQ | ≤ 0.2 |
| RKRL | ≤ 0.2 |
| RFAW | ≤ 0.2 |
| GLAT | ≤ 0.2 |
| SVWP | ≤ 0.2 |

| Variant | one-hybrid fitness for binding parS DNA |
| --- | --- |
| RSVR | ≤ 0.2 |
| PMTN | ≤ 0.2 |
| PVFT | ≤ 0.2 |
| AFRY | ≤ 0.2 |
| NHVS | ≤ 0.2 |
| QPTW | ≤ 0.2 |
| NRNR | ≤ 0.2 |
| SDGT | ≤ 0.2 |
| FLES | ≤ 0.2 |
| YINC | ≤ 0.2 |
| STYG | ≤ 0.2 |
| CRRH | ≤ 0.2 |
| TCPK | ≤ 0.2 |
| HFLY | ≤ 0.2 |
| VFTI | ≤ 0.2 |
| HVPD | ≤ 0.2 |
| VHLW | ≤ 0.2 |
| ADRT | ≤ 0.2 |
| LYRA | ≤ 0.2 |
| DYHG | ≤ 0.2 |
| IWDS | ≤ 0.2 |
| HRVA | ≤ 0.2 |
| AGYL | ≤ 0.2 |
| IKVS | ≤ 0.2 |
| KRGR | 0.339 |
| HYKE | ≤ 0.2 |

| Variant | one-hybrid fitness for binding parS DNA |
| --- | --- |
| DSNC | ≤ 0.2 |
| IGIL | ≤ 0.2 |
| QSTI | ≤ 0.2 |
| VFKV | ≤ 0.2 |
| HTMC | ≤ 0.2 |
| TNDH | ≤ 0.2 |
| LYPR | ≤ 0.2 |
| PMDY | ≤ 0.2 |
| GYSA | ≤ 0.2 |
| KRKD | ≤ 0.2 |
| PDPK | ≤ 0.2 |
| LRCL | ≤ 0.2 |
| YFNT | ≤ 0.2 |
| MNTW | ≤ 0.2 |
| GMGS | ≤ 0.2 |
| ICRL | ≤ 0.2 |
| KQEY | ≤ 0.2 |
| RRGY | 0.361 |
| IIPF | ≤ 0.2 |
| KSAR | ≤ 0.2 |
| HPMP | ≤ 0.2 |
| KWIR | ≤ 0.2 |
| KMHG | ≤ 0.2 |
| CITG | ≤ 0.2 |
| KFTM | ≤ 0.2 |
| GKAF | ≤ 0.2 |

| Variant | one-hybrid fitness for binding parS DNA |
| --- | --- |
| RAKN | 0.462 |
| KRDT | ≤ 0.2 |
| QCTL | ≤ 0.2 |
| KVHR | ≤ 0.2 |
| LNIR | ≤ 0.2 |
| PRKF | ≤ 0.2 |
| VSNL | ≤ 0.2 |
| QLWT | ≤ 0.2 |
| STPS | ≤ 0.2 |
| NAVF | ≤ 0.2 |
| SQLN | ≤ 0.2 |
| DMRG | ≤ 0.2 |
| MHYH | ≤ 0.2 |
| LTWS | ≤ 0.2 |
| SYHC | ≤ 0.2 |
| ATRD | ≤ 0.2 |
| LTPW | ≤ 0.2 |
| CFSV | ≤ 0.2 |
| NETE | ≤ 0.2 |
| HIAN | ≤ 0.2 |
| LRKS | ≤ 0.2 |
| TQRT | ≤ 0.2 |
| HFSR | ≤ 0.2 |
| KCKY | ≤ 0.2 |
| RWYF | ≤ 0.2 |
| HDAF | ≤ 0.2 |

| Variant | one-hybrid fitness for binding parS DNA |
| --- | --- |
| HSQI | ≤ 0.2 |
| DYSP | ≤ 0.2 |
| WHAG | ≤ 0.2 |
| LGQT | ≤ 0.2 |
| SNSL | ≤ 0.2 |
| ADTA | ≤ 0.2 |
| HRSD | ≤ 0.2 |
| MRFK | ≤ 0.2 |
| QCEG | ≤ 0.2 |
| DSWR | ≤ 0.2 |
| LSRF | ≤ 0.2 |
| LTMM | ≤ 0.2 |
| PFII | ≤ 0.2 |
| DVNV | ≤ 0.2 |
| VSLE | ≤ 0.2 |
| CKHP | ≤ 0.2 |
| EQEG | ≤ 0.2 |
| KSNG | ≤ 0.2 |
| NPLW | ≤ 0.2 |
| SDLV | ≤ 0.2 |
| WLYR | ≤ 0.2 |
| AYYR | ≤ 0.2 |
| YDLA | ≤ 0.2 |
| QFER | ≤ 0.2 |
| LYTA | ≤ 0.2 |
| PQIC | ≤ 0.2 |

| Variant | one-hybrid fitness for binding parS DNA |
| --- | --- |
| PVHM | ≤ 0.2 |
| PDMV | ≤ 0.2 |
| ARKS | ≤ 0.2 |
| CPTM | ≤ 0.2 |
| EART | ≤ 0.2 |
| AKGG | ≤ 0.2 |
| IPGC | ≤ 0.2 |
| GMVM | ≤ 0.2 |
| KPLI | ≤ 0.2 |
| NTPH | ≤ 0.2 |
| NQLS | ≤ 0.2 |
| LKRM | ≤ 0.2 |
| HKDS | ≤ 0.2 |
| TKRA | ≤ 0.2 |
| VDIA | ≤ 0.2 |
| DNSS | ≤ 0.2 |
| TVRW | ≤ 0.2 |
| AQDK | ≤ 0.2 |
| MWHR | ≤ 0.2 |
| VIPV | ≤ 0.2 |
| SCSA | ≤ 0.2 |
| FAHR | ≤ 0.2 |
| KEGS | ≤ 0.2 |
